Source: PubChem BioAssay AID1963576 (National Center for Advancing Translational Sciences (NCATS), 2024)
About 60 (0.1%) of roughly 46,000 compounds were called active. Roughly 3% stayed inconclusive and do not appear here. Calls come from the whole dose curve; as a rule, active = well fitted inhibition curve with a large enough effect; inconclusive = small, poorly fitted or top-dose-only effect; inactive = no such curve, though single readings can be large or run the other way. The list shows a part of the results.

assay: Primary qHTS assay for Inhibitors of ovarian cancer metastasis using an organotypic tumor microenvironment (TME) model.; note: nearly all actives have a fitted effect of over 65% in size;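 for Potency: count of GFP cancer cells still attached after washing and fixation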;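 for activity change, negative = inhibition: plate controls were DMSO wells for no effect and tomatine positive control wells for full effect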; details: SKOV3ip1-GFP adhesion/invasion on 3D omental model, fluorescence; series mostly up to 45.8 µM; activity change, negative = inhibition: at the top concentration
How it was run: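 A 3D layer of primary human omental fibroblasts, mesothelial cells, fibronectin and collagen I, grown 48 hr, received SKOV3ip1-GFP cells in serum-free medium plus compounds at 0.36-46 umol/L. After 2 hr RT and 16 hr 37 C, fixed adherent GFP cells were counted; normalized to DMSO and tomatine.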
Potency is the fitted concentration of half-maximal effect.

**Q.** With `CSc1ccc(CCNC(=O)Cn2ncn3c(cc4ccccc43)c2=O)cc1` as the molecule, how does the “activity change, negative = inhibition” value read?
**A.** The value was inactive: 3.49%.

**Q.** Which “outcome” value does the source give for `CCN1C(=O)N(c2ccc(C(C)=O)cc2)S(=O)(=O)c2ccccc21` here?
**A.** The value was “inactive”.

**Q.** With `Cc1ccc(CN2C(=O)C(=O)c3cc(Br)cc(C)c32)cc1` as the molecule, how does the Potency read?
**A.** Its Potency is active: 12.6 µM.

**Q.** For `CCC(C(=O)Nc1ccccc1)n1nc(-c2cc(C)ccc2C)ccc1=O` (configuration not stated), which “outcome” value is on record?
**A.** The value was “inactive”.

**Q.** With `Cc1cccc(NC(=O)C2CCCN(S(=O)(=O)c3c(C)n[nH]c3C)C2)c1` (configuration not stated) as the molecule, how does the “outcome” value read?
**A.** Its value is “inactive”.

**Q.** Which “activity change, negative = inhibition” value does the source give for `COc1ccc(Br)cc1CNC(=O)c1cnc2sc(N3CCCCCC3)nn2c1=O` here?
**A.** Its value is inactive: -3.19%.

**Q.** For `CCN(C(=O)c1cc2c(=O)n(CC)c3ccccc3c2s1)c1cccc(C(F)(F)F)c1`, which “outcome” value is on record?
**A.** The value was “inactive”.

**Q.** With `COc1cccc(-n2c(-c3ccco3)nc3c(cnn3-c3ccc(Cl)cc3)c2=O)c1` as the molecule, how does the “activity change, negative = inhibition” value read?
**A.** The value was inactive: 14.8%.

**Q.** With `CCn1c(C)c(C)c2cc(C(=O)N3CCN(c4cccc(C)c4C)CC3)ccc21` as the molecule, how does the “activity change, negative = inhibition” value read?
**A.** The value was inactive: -15.6%.

**Q.** With `COc1cc(CN(C(=O)COc2ccccc2Cl)c2ccccn2)cc(OC)c1OC` as the molecule, how does the “activity change, negative = inhibition” value read?
**A.** The value was inactive: -0.981%.

**Q.** Which “outcome” value does the source give for `COc1cccc(N2C(=O)CSC23C(=O)N(CC(=O)Nc2cccc(Cl)c2)c2ccccc23)c1` (configuration not stated) here?
**A.** Its value is “inactive”.

**Q.** With `O=C(CSc1cn(CCNC(=O)c2ccccc2F)c2ccccc12)Nc1ccc(F)cc1` as the molecule, how does the “outcome” value read?
**A.** The value was “inactive”.

**Q.** With `CN1CC(=O)N2C(Cc3c([nH]c4ccccc34)[C@H]2c2ccc3c(c2)OCO3)C1=O` (some centres not stated) as the molecule, how does the “activity change, negative = inhibition” value read?
**A.** The value was inactive: -2.58%.

**Q.** Which “outcome” value does the source give for `CCC(CC)C(=O)N1CCc2cc(OC)c(OC)cc2C1COc1ccc(C(=O)OC)cc1` (configuration not stated) here?
**A.** Its value is “inactive”.

**Q.** Which “outcome” value does the source give for `COc1ccc(C)cc1NC(=O)CSc1nc(=O)[nH]c2c1CCCC2` here?
**A.** Its value is “inactive”.

**Q.** With `CCC(=O)Nc1ccc2nc(SCc3ccccc3)sc2c1` as the molecule, how does the “activity change, negative = inhibition” value read?
**A.** Its value is inactive: 1.02%.

**Q.** Which “activity change, negative = inhibition” value does the source give for `O=S(=O)(c1ccc(Cl)cc1)c1nnn2c1nc(NCc1cccs1)c1sccc12` here?
**A.** Its value is inactive: -4.65%.

**Q.** With `CCOc1ccc(-n2c(=O)c3c4c(sc3n(CC(=O)NC(C)CC)c2=O)CCC4)cc1` (configuration not stated) as the molecule, how does the “activity change, negative = inhibition” value read?
**A.** The value was inactive: 3.23%.

**Q.** With `CN(C)S(=O)(=O)N(CC(=O)NCCSCc1cccc(Cl)c1)c1ccccc1` as the molecule, how does the “activity change, negative = inhibition” value read?
**A.** The value was inactive: 7.96%.

**Q.** Which “activity change, negative = inhibition” value does the source give for `CCOC(=O)c1ccc(N2C(=O)c3n[nH]c(-c4cccs4)c3C2c2cccc(OC)c2)cc1` (configuration not stated) here?
**A.** The value was inactive: 1.38%.

**Q.** For `COc1ccc(CC(=O)Nc2cc(-c3nc4cccnc4s3)ccc2C)cc1`, which “activity change, negative = inhibition” value is on record?
**A.** Its value is inactive: 12.6%.

**Q.** For `Cc1cc(C)cc(Nc2ncnc3onc(-c4ccc(F)cc4)c23)c1`, which “activity change, negative = inhibition” value is on record?
**A.** Its value is inactive: 3.82%.

**Q.** For `Cc1ccc(Nc2c(-c3ccc(C)cc3)nc3ccc(C)cn23)cc1`, which “activity change, negative = inhibition” value is on record?
**A.** The value was inactive: -6.89%.

**Q.** Which “activity change, negative = inhibition” value does the source give for `CCc1ccc2oc(-c3cccc(NC(=O)C(C)(C)Oc4ccc(Br)cc4)c3)nc2c1` here?
**A.** The value was inactive: -7.57%.

**Q.** For `CCOc1ccccc1NC(=O)C(=O)c1cc(C)n(-c2ccc(F)cc2)c1C`, which “activity change, negative = inhibition” value is on record?
**A.** The value was inactive: -11.9%.

**Q.** Which “activity change, negative = inhibition” value does the source give for `CCOc1ccc(-n2cc(-c3ccccc3)c3c(N4CCC(C)CC4)ncnc32)cc1` here?
**A.** The value was inactive: 19.3%.

**Q.** Which “activity change, negative = inhibition” value does the source give for `CCS(=O)(=O)c1nc(S(=O)(=O)c2ccc(C)cc2)c(NC(C)c2ccccc2)s1` (configuration not stated) here?
**A.** Its value is inactive: -30.5%.

**Q.** With `COc1ccc(-c2nnc(Nc3ccc(OC)c(C(N)=O)c3)c3ccccc23)cc1` as the molecule, how does the “outcome” value read?
**A.** Its value is “inactive”.

**Q.** Which “outcome” value does the source give for `COc1ccc(Cl)cc1NC(=O)Cn1c(=O)n(CCCC(=O)NCCc2ccc(OC)c(OC)c2)c(=O)c2ccccc21` here?
**A.** The value was “inactive”.

**Q.** Which “outcome” value does the source give for `O=C(CCSCc1cccc(F)c1)NCc1ccccc1` here?
**A.** The value was “inactive”.

**Q.** For `COc1cccc(-n2c(SCC(=O)N3CCCc4ccccc43)nc3c([nH]c4ccccc43)c2=O)c1`, which “activity change, negative = inhibition” value is on record?
**A.** Its value is inactive: -2.51%.

**Q.** For `COc1cc(NC(=O)NC(C)c2c(-n3cccc3)sc3c2CCN(C)C3)cc(OC)c1` (configuration not stated), which “activity change, negative = inhibition” value is on record?
**A.** The value was inactive: 0.369%.

**Q.** For `CCCOc1ccc(CNC(=O)Cn2cc3c(n2)-c2c(oc(C(=O)N4CCOCC4)c2C)CC3)cc1`, which “activity change, negative = inhibition” value is on record?
**A.** Its value is inactive: -7.56%.

**Q.** Which “activity change, negative = inhibition” value does the source give for `CCc1ccc(S(=O)(=O)NCc2nc3cccnc3n2Cc2ccccc2Cl)cc1` here?
**A.** Its value is inactive: 1.93%.

**Q.** With `O=C(c1ccc2c(c1)CCCC2)N1CCN(c2nc3ccc(F)cc3s2)CC1` as the molecule, how does the “activity change, negative = inhibition” value read?
**A.** Its value is inactive: 8.09%.

**Q.** Which “activity change, negative = inhibition” value does the source give for `CCOc1ccc(CNC(=O)c2cc3c(s2)-c2ccccc2OC3)cc1` here?
**A.** The value was inactive: -8.3%.

**Q.** Which “activity change, negative = inhibition” value does the source give for `COc1ccc(S(=O)(=O)c2cc3cc(OC)ccc3oc2=O)cc1` here?
**A.** Its value is inactive: 3.76%.

**Q.** With `COc1ccc(C(=O)c2oc3ccccc3c2NC(=O)COc2ccc(C)cc2)cc1` as the molecule, how does the “activity change, negative = inhibition” value read?
**A.** Its value is inactive: 3.62%.

**Q.** Which “activity change, negative = inhibition” value does the source give for `CC(NC(=O)c1ccc(Cn2c(=O)c3cccn3c3cccnc32)cc1)c1ccccc1` (configuration not stated) here?
**A.** Its value is inactive: -7.55%.

**Q.** For `Cc1ccc(NC(=O)Cn2c(=O)n(CCCS(=O)(=O)C3CCCCC3)c(=O)c3ccccc32)cc1F`, which “activity change, negative = inhibition” value is on record?
**A.** Its value is inactive: 26.2%.

**Q.** Which “activity change, negative = inhibition” value does the source give for `CCN1CCN(c2c(S(=O)(=O)c3ccc(Cl)cc3)cnc3ccccc23)CC1` here?
**A.** The value was inactive: 0.898%.

**Q.** For `Cc1ccc(C)c(Nc2nc3c(S(=O)(=O)c4ccc(Br)cc4)nnn3c3ccsc23)c1`, which “outcome” value is on record?
**A.** The value was “inactive”.

**Q.** For `CCc1ccccc1NC(=O)N1CCc2cc(OC)c(OC)cc2C1CC(=O)OC` (configuration not stated), which “activity change, negative = inhibition” value is on record?
**A.** Its value is inactive: -25.3%.

**Q.** Which “activity change, negative = inhibition” value does the source give for `CCc1ccccc1NC(=O)CN1C(=O)COc2ccc(S(=O)(=O)Nc3ccccc3)cc21` here?
**A.** Its value is inactive: 28.3%.

**Q.** With `C#CCN(C)CC1=Cc2ccccc2Oc2ccccc21` as the molecule, how does the “activity change, negative = inhibition” value read?
**A.** Its value is inactive: -15.2%.

**Q.** For `COc1cc(C2c3c(-c4c(C)cc(C)cc4O)n[nH]c3C(=O)N2CCCOC(C)C)cc(OC)c1OC` (configuration not stated), which “activity change, negative = inhibition” value is on record?
**A.** The value was inactive: -5.41%.

**Q.** For `Cc1cccc(N2CCN(C(=O)CCC(=O)NNc3nc4ccccc4c4nc(C)nn34)CC2C)c1` (configuration not stated), which “activity change, negative = inhibition” value is on record?
**A.** The value was inactive: -8.98%.
